# Source: ChEMBL document CHEMBL4888484, “Replenishing the malaria drug discovery pipeline: Screening and hit evaluation of the MMV Hit Generation Library 1 (HGL1) against asexual blood stage Plasmodium falciparum ,using a nano luciferase reporter read-out” (2022)
# Among all 150,000 compounds or so, about 540 (0.36%) showed an effect of 50% or more. Some of the results follow.
# System: Plasmodium falciparum
# Experiment: Primary screen in NF54 nanoGlo assay, in single point, at 2uM, 72h; a lower Z score goes with more inhibition
# Assay type: functional, Erythrocyte
# Conditions: timepoint 72 hour
SMILES,% Inhibition,Z score
Cn1c(=O)c2c(ncn2Cc2cc(-c3ccccc3)on2)n(C)c1=O,-19%,2.56
CC(C)(NC(=O)c1cncs1)[C@@H]1CCCCO1,-4%,0.39
N#C[C@@H]1C(=O)N=C(N2CCc3ccccc32)NC12CCCCC2,9%,-1.15
O=C(Cn1cc(C(F)(F)F)ccc1=O)NC1CC1,-10%,1.65
C[C@@H](CCCO)NCc1cc(Br)ccc1Cl,-3%,0.49
COC(=O)NCC(=O)N1CCN(c2ccc3[nH]ncc3c2)C(=O)C1,-10%,1.95
CCc1noc(COCC(=O)N2CC(=O)Nc3ccccc32)n1,-1%,0.18
Cc1cc(N2CC[C@]3(CCOC3)C2)n2ncnc2n1,5%,-0.66
CCc1nn(C)cc1NC(=O)c1ccc(-c2ccco2)nc1C,-1%,0.14
COc1ccc(CCC(=O)Nc2cc(-c3ccn[nH]3)sc2C)cc1,-10%,1
Cc1ncc(C)c(N2CCC[C@H](c3nnc(CN4CCC(O)CC4)n3C)C2)n1,4%,-0.52
C=C(C)C[C@H](C)C(=O)Nc1ccnc(CO)c1,-14%,1.19
CCCCCOCC(=O)NCc1nc(C(F)(F)F)no1,-14%,1.92
Cc1cccc(Nc2nc(C(=O)NCCc3ccco3)nc3ccccc23)c1,12%,-2.2
O=C(Nc1ccc(F)cc1)C1=NCCCN1,-15%,1.95
CCN(CC)C(=O)c1ccc(C)cc1C,-5%,0.66
CCOc1ccccc1NC(=O)Cc1c(C)nc2nc(-c3ccccc3Cl)nn2c1C,1%,-0.13
O=C(Nc1ccc2c(c1)OCCO2)N1CCC(F)(C(=O)N2CCOCC2)CC1,-9%,1.21
Cn1cnnc1COc1ccc(Cc2ccccc2)cc1,2%,-0.2

SMILES,% Inhibition,Z score
Cc1ccccc1C(=O)NCc1ccc(-c2ccco2)nc1,-3%,0.55
CCOC(=O)c1csc(CN2CCOCC2)n1,8%,-1.06
CCCc1nc(CN(CC)C(=O)c2cc(F)c(F)cc2Cl)no1,1%,-0.12
Cc1c(Cl)cc(S(=O)(=O)N2CCC(n3ccnc3)CC2)cc1C(=O)O,-11%,1.9
COc1ccc(CNCc2cccnc2N2CCCCCCC2)cc1F,-2%,0.39
CC1(C)CC(=O)c2cn(-c3ccccc3)c(=O)c(C(=O)N3CCCCCC3)c2C1,1%,-0.13
Cc1cc(C(=O)NC[C@H]2CCCN(Cc3cncn3C3CCCCC3)C2)c(C)o1,-11%,2.24
Cc1ccc(C(=O)Nc2ccc(C)c(N3CCCS3(=O)=O)c2)o1,-25%,4.78
CC(C)C/C=C(\CN1C[C@H](O)[C@@H](N(C)C)C1)c1ccccc1,1%,-0.11
O=C(Nc1[nH]ncc1-c1cccc(Cl)c1)c1cccnc1,0%,-0.09
Cc1cc(S(=O)(=O)Nc2[nH]nc(C)c2C#N)sc1Cl,3%,-0.3
COc1ccc(CC(=O)N2CCN(c3cc(C)n4c(C)nnc4n3)CC2)cc1,-14%,1.9
Cc1ccc(F)c(CCNC(=O)c2nc3n(n2)CCCN3)c1,-14%,2
Cn1nc(C(=O)N2CCC[C@H](Oc3cccnn3)C2)ccc1=O,5%,-0.53
COCCc1noc(-c2cnc(-c3ccccc3)s2)n1,-15%,1.9
CCS(=O)(=O)N1CCC[C@H](c2nnc3n2CCN(C(=O)c2ccco2)C3)C1,-7%,1.43
Cc1ccc(NS(C)(=O)=O)c(N)c1,-4%,0.87
COc1cc2c(cc1OC)[C@H](CNC(=O)c1ccccc1C)N(Cc1cccc(F)c1)CC2,-6%,0.8
Cc1cc(Br)cnc1N(C)CCNS(C)(=O)=O,-14%,1.23

SMILES,% Inhibition,Z score
CN(Cc1cc(Cl)ccc1F)C(=O)C1CCS(=O)(=O)CC1,-17%,3.5
COCCN(Cc1ccc(OC)c(OS(=O)(=O)C(C)C)c1)C(=O)CC(C)(C)C,1%,-0.18
COC(=O)[C@H](CNS(=O)(=O)N1CCCC1)CC(C)C,-9%,0.83
O=C(Nc1cccnc1)N1CCCCCC1,2%,-0.25
Cn1nccc1CNS(=O)(=O)c1ccc2ccccc2c1,0%,-0.04
CCc1nccn1CCCNC(=O)c1cc(C#N)c[nH]1,-13%,2.46
C=CCN1CC(=O)N(c2c(C)cc(C)cc2C)C1=O,-4%,0.59
COc1cccc(Cl)c1CC(=O)O[C@@H](C)CNS(C)(=O)=O,2%,-0.26
CCc1cc(C(=O)Nc2sc3c(c2C#N)CCC3)no1,-8%,0.96
NC(=O)COC(=O)c1ccc(Cl)cc1,-6%,1.04
O=C(c1cc(C2CC2)nc2ccccc12)N(CCO)C1CCCCC1,-15%,1.66
CC(=O)N[C@H]1C[C@H](c2nnc(COc3c(F)ccc(C)c3Cl)n2C)C1,-7%,0.75
CN(C)C[C@H]1CN(C(=O)NCC(C)(C)c2ccccn2)CCO1,-1%,0.11
O=C(NCc1ccncc1)[C@H]1CC(=O)N(Cc2cc(C(F)(F)F)cc(C(F)(F)F)c2)C1,3%,-0.48
Cc1noc(CNC(=O)CC[C@@H]2C(=O)Nc3ccccc32)n1,-11%,1.34
CCC(NC(=O)C1OCCC1C)(C(N)=O)C(C)C (centres undefined),-12%,1.38
O=C(CN1CCC(Cn2c(C(F)(F)F)nc3ccccc32)CC1)N1CCc2ccccc21,4%,-0.46
COc1ccccc1-c1cc2c(n(Cc3ccccc3)c1=O)CCN(C(=O)CCc1cnccn1)C2,-17%,2.25
CCN=C(NCC)NCc1ccnc(C2CC2)c1,-14%,1.95
